According to a collection of fitness landscapes (doi:10.1126/science.1257360):
This is one part of the list.

B1: PhoQ; a variant is named by its letters at X, in order, P23837 (parent)
chain: MKKLLRLFFPLSLRVRFLLATAAVVLVLSLAYGMVALIGYSVSFDKTTFRLLRGESNLFYTLAKWENNKLHVELPENIDKQSPTMTLIYDENGQLLWAQRDVPWLMKMIQPDWLKSNGFHEIEADVNDTSLLLSGDHSIQQQLQEVREDDDDAEMTHSVAVNVYPATSRMPKLTIVVVDTIPVELKSSYMVWSWFIYVLSANLLLVIPLLWVAAWWSLRPIEALAKEVRELEEHNRELLNPATTRELTSLVRNLNRLLKSERERYDKYRTTLTDLTHSLKTPLXXLQXXLRSLRSEKMSVSDAEPVMLEQISRISQQIGYYLHRASMRGGTLLSRELHPVAPLLDNLTSALNKVYQRKGVNISLDISPEISFVGEQNDFVEVMGNVLDNACKYCLEFVEISARQTDEHLYIVVEDDGPGIPLSKREVIFDRGQRVDTLRPGQGVGLAVAREITEQYEGKIVAGESMLGGARMEVIFGRQHSAPKDE

Variants of: B1
Test: enrichment ratio after two sorts for PhoP signalling (ratio (wild type AVST 3.29)); higher = more functional
Conditions: with PhoP (E. coli)

Variant	enrichment ratio
RHAM	≤ 0.25
FVRK	≤ 0.25
MGHR	≤ 0.25
RDFH	≤ 0.25
RASV	≤ 0.25
YLYS	≤ 0.25
YAQN	≤ 0.25
DECR	≤ 0.25
ATRC	≤ 0.25
GRPW	≤ 0.25
YYIL	≤ 0.25
WPKI	≤ 0.25
DVEQ	≤ 0.25
KYHH	≤ 0.25
DDQP	≤ 0.25
FDDQ	≤ 0.25
GTLM	14.5
QIIR	≤ 0.25
MFPH	0.547
LCCK	≤ 0.25
NIVQ	≤ 0.25
HRGW	≤ 0.25
MDDP	≤ 0.25
WQLR	≤ 0.25
SCGQ	3.23
AVSF	9.87

Variant	enrichment ratio
HIQN	≤ 0.25
YITS	0.602
THRG	≤ 0.25
RMKG	≤ 0.25
WACR	≤ 0.25
LDQL	≤ 0.25
GKID	≤ 0.25
NFML	≤ 0.25
YRCA	≤ 0.25
GMPQ	≤ 0.25
DGYL	≤ 0.25
NMTC	≤ 0.25
SMNQ	≤ 0.25
VDKV	≤ 0.25
WCWL	≤ 0.25
QIHY	≤ 0.25
HVYW	≤ 0.25
LDPI	≤ 0.25
ICLI	5.89
ECNT	≤ 0.25
PRKG	≤ 0.25
VTMN	≤ 0.25
GVIQ	≤ 0.25
RANY	≤ 0.25
FEVP	≤ 0.25
PLDG	≤ 0.25

Variant	enrichment ratio
IHWM	≤ 0.25
EMVH	≤ 0.25
YDFP	≤ 0.25
TTAF	14
NWWA	≤ 0.25
PSGC	≤ 0.25
VFVH	≤ 0.25
KFLI	≤ 0.25
ELQR	≤ 0.25
DFWI	≤ 0.25
MYSG	≤ 0.25
NSHA	≤ 0.25
TARE	≤ 0.25
MGPG	≤ 0.25
IMLW	≤ 0.25
NNRS	≤ 0.25
TKHY	≤ 0.25
FSWR	≤ 0.25
VEND	≤ 0.25
VWCP	≤ 0.25
FYKS	≤ 0.25
YICK	≤ 0.25
MHAS	≤ 0.25
HARY	≤ 0.25
FDQC	≤ 0.25
GVGN	≤ 0.25

Variant	enrichment ratio
RKLI	≤ 0.25
ADGK	≤ 0.25
SMTA	11.8
PMRP	≤ 0.25
VEHD	≤ 0.25
QRAG	≤ 0.25
EKAS	≤ 0.25
DVIF	≤ 0.25
DFWD	≤ 0.25
ERHS	≤ 0.25
WIPP	≤ 0.25
FMDV	≤ 0.25
EHWH	≤ 0.25
FYRW	≤ 0.25
SKSF	≤ 0.25
SVGA	0.974
DSRY	≤ 0.25
KTLM	2.5
RFES	≤ 0.25
SNKW	≤ 0.25
GLLT	0.268
SQME	2.06
HMHD	≤ 0.25
TENF	≤ 0.25
WNHF	≤ 0.25
TKHN	≤ 0.25

Variant	enrichment ratio
LADF	≤ 0.25
FFIK	≤ 0.25
HFCR	≤ 0.25
DCNC	≤ 0.25
RISA	≤ 0.25
FLHF	≤ 0.25
LKCD	≤ 0.25
ENEV	≤ 0.25
KHHY	≤ 0.25
YMCT	≤ 0.25
HCCY	≤ 0.25
WLFA	≤ 0.25
WYSF	≤ 0.25
DVSN	≤ 0.25
SNYM	≤ 0.25
WQAP	≤ 0.25
RVMQ	≤ 0.25
DCYV	≤ 0.25
MALF	4.89
FCIW	≤ 0.25
MWCG	≤ 0.25
TLQY	5.21
PKGA	≤ 0.25
MPLE	≤ 0.25
ITII	≤ 0.25
QFYF	≤ 0.25

Variant	enrichment ratio
SPYN	≤ 0.25
WFCW	≤ 0.25
GQMP	≤ 0.25
IGEC	≤ 0.25
NLNT	≤ 0.25
IIPL	≤ 0.25
WIFY	≤ 0.25
RSRS	≤ 0.25
TNDR	≤ 0.25
KSPL	≤ 0.25
HWKK	≤ 0.25
HKDN	≤ 0.25
NTHM	≤ 0.25
SKWL	≤ 0.25
TWYW	≤ 0.25
SMTP	≤ 0.25
WPYE	≤ 0.25
VTCC	≤ 0.25
YTMA	≤ 0.25
ENFT	≤ 0.25
GFHM	≤ 0.25
RDIT	≤ 0.25
ANRK	≤ 0.25
